The supplement of paper PMC4723716
± gives the uncertainty stated by the source. The full ranking holds about 9,900 compounds; the median of “viability index relative to DMSO control” is about 1, and the lowest 2% start at about 0.85. Some of the results follow.

tested on: Plasmodium falciparum NF54 stage V gametocytes; experiment: viability index relative to DMSO control (fraction); higher = less gametocyte killing; settings: 2.5 µM, library set: Broad Institute DOS, incubation time: 72 h
Procedure, shortened: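 In 1,536-well plates, 10 µl of serum-free medium holding P. falciparum NF54 stage V gametocytes (0.75% gametocytemia, 1.25% hematocrit) received compound at 2.5 µM for 72 hr at 37°C in low oxygen. After one to two hours with 3 µl of 2.5 µM MitoTracker Red CMXRos containing 0.13% saponin, red particles of 20–70 µm2 were counted in a single field per well. Viability index is reported as the particle count over the plate mean of wells treated with solvent only.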

SMILES | viability index
O=C(c1cnccn1)N1C[C@@H]2N[C@H](C1)[C@H]2c1ccc(/C=C/c2ccccc2)cc1 | 1.07 ± 0.026
CN(C)CC(=O)N1C[C@@H]2N[C@H](C1)[C@@H]2c1ccc(-c2ccccc2F)cc1 | 0.745 ± 0.074
Cc1noc(C)c1NC(=O)N(C)C[C@H]1Oc2ccc(NC(=O)Cc3cn(C)c4ccccc34)cc2CC(=O)N([C@H](C)CO)C[C@H]1C | 1.02 ± 0.061
COc1ccc2c3c([C@H](CO)NC[C@]33CCN(Cc4ccncc4)CC3)n(C)c2c1 | 1.03 ± 0.022
CCC(=O)N1[C@H](CO)[C@H](c2ccccc2)C12CN(C(=O)CN1CCOCC1)C2 | 1.02 ± 0.097
COCC(=O)N1C[C@@H](C)[C@H](OC)CN(C)C(=O)c2ccc(NC(=O)Nc3cccc(F)c3)cc2OC[C@H]1C | 1.01 ± 0.055
O=C(Cc1ccccc1)N1CC[C@@H]2[C@@H](CO)Nc3ccc(C#Cc4cccc(F)c4)cc3[C@@H]21 | 1.1 ± 0.022
CO[C@H](CN(C)C(=O)c1ccccc1F)[C@H](C)CN([C@@H](C)CO)S(=O)(=O)c1ccc(F)cc1 | 0.976 ± 0.058
C[C@@H]1CN([C@@H](C)CO)C(=O)c2cc(NC(=O)CCC(F)(F)F)ccc2O[C@@H](C)CCCCO[C@@H]1CN(C)C(=O)Nc1cccc2ccccc12 | 0.734 ± 0.082
C[C@H]1CN([C@@H](C)CO)C(=O)c2ccccc2-c2ccccc2CO[C@@H]1CN(C)C(=O)[C@@H]1CCCN1C | 0.946 ± 0.043
N#C[C@H]1[C@@H](c2ccccc2C2=CCCC2)[C@H](CO)N1S(=O)(=O)c1cccc(F)c1 | 1.06 ± 0.056
CN(C)CC(=O)N1[C@H](C#N)[C@H](c2ccc(-c3cccc(C(=O)N(C)C)c3)cc2)[C@H]1CO | 1.09 ± 0.066
CN(C)CC(=O)N1[C@H](C#N)[C@@H](c2ccccc2-c2ccccc2F)[C@@H]1CO | 1.15 ± 0.13
C[C@@H]1CN([C@H](C)CO)C(=O)CCCn2cc(nn2)CO[C@H]1CN(C)C(=O)Nc1ccc2c(c1)OCO2 | 1.05 ± 0.042
O=C(CC1CC1)N1CC2(C1)[C@@H](c1ccccc1)[C@H](CO)N2C(=O)c1ccccn1 | 1 ± 0.013
COc1ccc2c3c([nH]c2c1)[C@H](CO)NC[C@]31CN(C1)C(=O)Nc1c(C)noc1C | 1.081 ± 0.0086
C[C@@H]1CCCCO[C@H](CN(C)S(=O)(=O)c2cn(C)cn2)[C@H](C)CN([C@@H](C)CO)C(=O)c2cc(NC(=O)Nc3cccc4ccccc34)ccc2O1 | 0.971 ± 0.037
C[C@H](CO)N1C[C@H](C)[C@H](CN(C)S(=O)(=O)c2cn(C)cn2)OCCCC[C@H](C)Oc2ccc(N(C)C)cc2C1=O | 1.02 ± 0.029
Cc1ccccc1-c1ccc([C@H]2[C@H]3CN(C(=O)Nc4cccc(F)c4)CC(=O)N3[C@H]2CO)cc1 | 1.003 ± 0.0018
CO[C@@H]1CC[C@H]2CCOc3ccc(C#N)cc3C(=O)N(C)[C@H](C)C(=O)N(C)C[C@@H]1O2 | 0.956 ± 0.017
O=C(C[C@@H]1CC[C@H](NC(=O)c2ccc3c(c2)OCO3)[C@@H](CO)O1)NCc1ccc(Oc2ccccc2)cc1 | 1.06 ± 0.021
COc1ccc(S(=O)(=O)Nc2ccc3c(c2)C(=O)N([C@H](C)CO)C[C@@H](C)[C@H](CN(C)Cc2ccc(C(F)(F)F)cc2)OCCCC[C@@H](C)O3)cc1 | 0.898 ± 0.12
C[C@@H]1C/C=C/C[C@@H](c2ccc3c(c2)OCO3)NC(=O)[C@H](C)N(C)C(=O)c2ccccc2O1.C[C@@H]1C/C=C\C[C@@H](c2ccc3c(c2)OCO3)NC(=O)[C@H](C)N(C)C(=O)c2ccccc2O1 | 0.983 ± 0.038

SMILES | viability index
CN(C)CC(=O)N[C@H]1C=C[C@H](CC(=O)NCc2ccc(Cl)cc2)O[C@H]1CO | 1.11 ± 0.15
CCN(C[C@H]1N[C@H](CO)[C@@H]1c1ccccc1)C(=O)c1ccncc1 | 1 ± 0.019
COc1ccccc1NC(=O)N1C[C@@H](O)COC[C@@H]2O[C@H](CC(=O)N3CCC(Cc4ccccc4)CC3)CC[C@H]21 | 1.08 ± 0.054
COC(=O)[C@H]1[C@H](CO)[C@H]2Cn3c(ccc(/C=C/c4ccccc4)c3=O)[C@H]2N1CCC(F)(F)F | 1.004 ± 0.0063
N#Cc1cccc(-c2ccc([C@H]3[C@@H](CO)N4CCCCN(Cc5ccccc5F)C[C@@H]34)cc2)c1 | 1.07 ± 0.067
C[C@H]1CN([C@@H](C)CO)C(=O)c2cc(NC(=O)C3CCCCC3)ccc2O[C@H]1CN(C)C(=O)Nc1ccc(C(F)(F)F)cc1 | 1.06 ± 0.044
COCC(=O)N1CC2(C1)[C@H](c1ccccc1)[C@H](CO)N2C(=O)NC1CCCC1 | 1.07 ± 0.042
COc1ccc2c3c([nH]c2c1)[C@@H](CO)N(C[C@]31CCN(CC1)S(=O)(=O)c1cccc(C)c1)C(=O)Nc1cccc(F)c1 | 1.01 ± 0.065
C[C@H](CO)N1C[C@H](C)[C@@H](CN(C)Cc2ccc(-c3ccccc3)cc2)Oc2ccc(N(C)C)cc2CC1=O | 0.91 ± 0.16
N#C[C@@H]1[C@@H](c2ccc(/C=C/c3ccccc3)cc2)[C@@H](CO)N1C(=O)Cc1ccccn1 | 1.04 ± 0.022
N#Cc1cccc(-c2ccc([C@H]3[C@H]4CNC[C@@H]3N4Cc3cc(F)ccc3F)cc2)c1 | 1.1 ± 0.029
N#Cc1cccc(-c2ccc3c(c2)[C@H]2[C@H](CCN2C(=O)CN2CCOCC2)[C@H](CO)N3)c1 | 1.05 ± 0.021
Cc1noc(C)c1S(=O)(=O)Nc1ccc2c(c1)C(=O)N([C@H](C)CO)C[C@@H](C)[C@H](CN(C)Cc1ccc(C(=O)O)cc1)OCCCC[C@@H](C)O2 | 1.07 ± 0.12
CN1c2ccc(-c3cccc(C#N)c3)cc2[C@@H]2[C@@H](CCN2C(=O)CN2CCOCC2)[C@H]1CO | 1.03 ± 0.11
O=C(CC(F)(F)F)N1C[C@@H]2[C@H](c3ccccc31)[C@@H](CO)N2Cc1cccnc1 | 1.02 ± 0.037
CO[C@H]1CC[C@@H]2CCN(C)C(=O)[C@H](C)CN(C)C(=O)c3cc(C#N)ccc3OC[C@H]1O2 | 0.99 ± 0.035
NCC[C@H]1CC[C@H](NS(=O)(=O)c2ccc(Cl)cc2)[C@@H](CO)O1 | 1.1 ± 0.039
O=C(CC1CC1)N1CC2(C1)[C@@H](c1ccccc1)[C@@H](CO)N2S(=O)(=O)Cc1ccccc1 | 1.07 ± 0.026
C[C@H](CO)N1C[C@H](C)[C@@H](CN(C)S(=O)(=O)c2cccc(C#N)c2)OCc2ccccc2-c2ccccc2C1=O | 1.03 ± 0.032
O=C(C[C@@H]1CC[C@@H]2[C@H](COC[C@H](O)CN2C(=O)Nc2ccccc2)O1)NCc1ccccc1F | 1.05 ± 0.13
O=C(CC1CC1)N1CC[C@@H]2[C@H]1c1cc(-c3ccc(F)cc3)ccc1N[C@@H]2CO | 1.046 ± 0.009
O=C(Nc1cc(F)ccc1F)N[C@H]1CC[C@@H](CC(=O)N2CCc3ccccc3C2)O[C@@H]1CO | 1.05 ± 0.05
N#C[C@H]1[C@@H](c2ccc(-c3cccc(F)c3)cc2)[C@@H](CO)N1C(=O)NC1CCCC1 | 0.916 ± 0.12

SMILES | viability index
CCS(=O)(=O)N1[C@H](C#N)[C@H](c2ccc(C#Cc3ccccc3F)cc2)[C@@H]1CO | 1.12 ± 0.053
CC(C)NC(=O)Nc1cccc2c1O[C@@H](CN(C)C(=O)Nc1ccccc1)[C@@H](C)CN([C@H](C)CO)C2=O | 1.1 ± 0.11
O=C(c1ccncc1)N1CC2(C1)[C@@H](c1ccccc1)[C@@H](CO)N2CC1CC1 | 1.09 ± 0.021
CS(=O)(=O)N1[C@@H]2c3ccc(-c4cccc(F)c4)c(=O)n3C[C@H]1[C@H](CO)[C@H]2C(=O)N1CCCCC1 | 1.03 ± 0.02
Fc1cccc(-c2ccc([C@@H]3[C@H]4CNC[C@@H]3N4Cc3cncnc3)cc2)c1 | 1.09 ± 0.027
CCCNC(=O)N1[C@@H]2CN(C(=O)Nc3cccc(Cl)c3)c3ccccc3[C@@H]2[C@@H]1CO | 1.02 ± 0.1
C[C@H](CO)N1C[C@H](C)[C@H](CN(C)C(=O)NC2CCCCC2)Oc2ncc(-c3cccc(F)c3)cc2C1=O | 1.01 ± 0.084
Cc1nc(N2[C@@H](C#N)[C@H](c3ccccc3)[C@@H]2CO)sc1C | 1.05 ± 0.022
C[C@@H]1CN([C@@H](C)CO)C(=O)CCCn2nncc2CO[C@@H]1CN(C)Cc1cccc(C(F)(F)F)c1 | 1.02 ± 0.051
COc1ccc2c3c([C@@H](CO)N(C[C@]33CCN(Cc4cncnc4)CC3)S(C)(=O)=O)n(C)c2c1 | 1.09 ± 0.044
Cc1noc(C)c1S(=O)(=O)Nc1ccc2c(c1)CC(=O)N([C@@H](C)CO)C[C@@H](C)[C@H](CN(C)Cc1ccc(Oc3ccccc3)cc1)O2 | 1.05 ± 0.036
c1cc(-c2ccc([C@H]3[C@@H]4CN(Cc5nccs5)C[C@H]3N4)cc2)ccn1 | 1.12 ± 0.077
C[C@H]1CCCCO[C@@H](CN(C)C(=O)c2ccncc2)[C@@H](C)CN([C@@H](C)CO)C(=O)c2cc(NC(=O)CCC(F)(F)F)ccc2O1 | 1.09 ± 0.091
CO[C@@H]1CN(C)C(=O)c2ccc(NC(=O)c3cc(C)on3)cc2OC[C@H](C)NC[C@H]1C | 1 ± 0.11
C/C=C/c1ccc([C@@H]2[C@H]3CNC[C@@H]2N3Cc2ccc3c(c2)OCO3)cc1 | 0.994 ± 0.12
O=C(C[C@@H]1CC[C@H]2[C@@H](COC[C@@H](O)CN2Cc2nccs2)O1)N1CCC(Cc2ccccc2)CC1 | 1.13 ± 0.068
CO[C@@H]1CN(C)C(=O)c2ccc(NS(=O)(=O)CC(F)(F)F)cc2OC[C@H](C)N(C(=O)NC(C)C)C[C@H]1C | 1.04 ± 0.026
CN1CCN(C(=O)C[C@@H]2CC[C@@H]3[C@H](COC[C@@H](O)CN3C(=O)Nc3ccc4c(c3)OCO4)O2)CC1 | 0.975 ± 0.089
CO[C@@H](CN(C)S(=O)(=O)c1ccc(C)cc1)[C@@H](C)CN(C(=O)Nc1ccccc1F)[C@H](C)CO | 1.04 ± 0.021
Cc1ccc(S(=O)(=O)Nc2ccc3c(c2)C(=O)N([C@@H](C)CO)C[C@H](C)[C@H](CN(C)S(=O)(=O)c2cccs2)OCCCC[C@@H](C)O3)cc1 | 1.07 ± 0.05
C[C@@H]1CN([C@@H](C)CO)C(=O)c2cc(NC(=O)Cc3ccccc3)ccc2O[C@@H](C)CCCCO[C@@H]1CN(C)Cc1ccncc1 | 1.02 ± 0.08
C[C@H](CO)N1C[C@H](C)[C@H](CN(C)S(=O)(=O)c2cn(C)cn2)Oc2ncc(C3=CCCCC3)cc2C1=O | 0.931 ± 0.064
OC[C@H]1[C@@H](c2ccccc2)C2(CN(CCC(F)(F)F)C2)N1Cc1cncnc1 | 1.09 ± 0.026
